Hit rate of the full screen: of about 310,000 compounds, about 14,000 (4.5%) showed an effect of 50% or more. The effect is printed as a negative number. The list shows a part of the results.
The compounds below were run against human ether-à-go-go-related gene (hERG) potassium channel (human, UniProt Q12809) (assay: primary screen, population patch clamp on CHO cells stably expressing hERG).
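Note: peak tail current of the secondary pulse compared with the same well before compound.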

Chain of human ether-à-go-go-related gene (hERG) potassium channel (Q12809 whole entry, looked up): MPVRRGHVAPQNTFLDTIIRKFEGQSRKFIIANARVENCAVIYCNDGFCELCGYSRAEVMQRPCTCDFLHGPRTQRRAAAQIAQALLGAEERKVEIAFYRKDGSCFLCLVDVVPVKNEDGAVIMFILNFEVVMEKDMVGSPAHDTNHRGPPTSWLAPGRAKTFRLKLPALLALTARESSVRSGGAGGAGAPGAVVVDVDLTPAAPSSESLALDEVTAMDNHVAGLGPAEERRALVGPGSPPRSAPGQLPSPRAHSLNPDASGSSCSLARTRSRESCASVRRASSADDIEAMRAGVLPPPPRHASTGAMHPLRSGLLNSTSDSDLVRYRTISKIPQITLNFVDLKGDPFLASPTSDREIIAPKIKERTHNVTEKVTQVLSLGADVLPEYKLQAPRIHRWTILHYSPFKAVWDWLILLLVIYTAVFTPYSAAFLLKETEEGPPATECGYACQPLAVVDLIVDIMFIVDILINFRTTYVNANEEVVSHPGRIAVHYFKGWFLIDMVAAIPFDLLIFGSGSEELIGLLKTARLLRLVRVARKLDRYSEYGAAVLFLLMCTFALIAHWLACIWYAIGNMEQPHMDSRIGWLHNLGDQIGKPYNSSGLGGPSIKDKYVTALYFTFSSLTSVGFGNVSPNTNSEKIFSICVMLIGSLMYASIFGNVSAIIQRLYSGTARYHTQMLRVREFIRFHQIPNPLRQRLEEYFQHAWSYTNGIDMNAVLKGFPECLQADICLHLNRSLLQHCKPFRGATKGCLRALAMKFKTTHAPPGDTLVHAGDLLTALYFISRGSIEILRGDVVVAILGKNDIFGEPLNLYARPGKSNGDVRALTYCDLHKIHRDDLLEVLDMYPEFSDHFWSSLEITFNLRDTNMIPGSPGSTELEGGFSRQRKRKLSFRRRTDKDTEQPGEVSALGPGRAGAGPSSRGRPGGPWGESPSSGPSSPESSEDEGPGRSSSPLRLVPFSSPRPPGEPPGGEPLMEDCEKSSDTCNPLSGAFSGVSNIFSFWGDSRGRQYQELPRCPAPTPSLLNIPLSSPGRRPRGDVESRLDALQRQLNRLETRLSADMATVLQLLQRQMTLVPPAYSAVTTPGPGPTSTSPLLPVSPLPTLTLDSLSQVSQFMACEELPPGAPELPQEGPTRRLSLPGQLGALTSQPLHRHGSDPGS

| SMILES | hERG current change (%, negative = inhibition) at 10uM |
| --- | --- |
| Cc1csc(=Nc2cccnc2)n1CC1CCCCC1 | -2.76% |
| CN1CCN(C(=O)c2ccc3c(c2)N(Cc2ccc(Cl)cc2)C(=O)c2ccccc2S3=O)CC1 (stereo not drawn) | -7.16% |
| Cc1cc(C)c(OCCN(C)C)c(Cl)c1.O=C(O)C(=O)O | -21.1% |
| Cc1cc(O)cc(C)c1Cl | -2.78% |
| N#Cc1cccc(C#N)c1NCC1CCCO1 (stereo not drawn) | 16.2% |
| O=S1(=O)C[C@H]2NC(=S)N(c3ccccc3)[C@H]2C1 | 20.5% |
| Cc1onc(-c2ccccc2)c1C(=O)NNC(=S)NC(=O)/C=C/c1ccccc1 | 16.2% |
| Cc1sc(NC(=O)CN2CCOCC2)nc1-c1ccc2c(c1)CCN2S(=O)(=O)c1ccccc1 | 0.0192% |
| CN1C(=O)c2cccc3c(S(=O)(=O)Nc4ccc(O)c(C(=O)O)c4)ccc1c23 | -14.5% |
| O=S1(=O)CCN(Cc2ccccc2Cl)CC1 | -11.1% |
| CCCn1c(NC(=O)c2ccc(Cl)c(S(=O)(=O)N3CCCC3)c2)nc2ccccc21 | 7.74% |
| Cc1ccccc1NC(=O)COC(=O)CCSc1ccccc1 | 25.9% |
| CCCCn1c(N)c(N(Cc2ccccc2OC)C(=O)c2ccc([N+](=O)[O-])s2)c(=O)[nH]c1=O | 3.38% |
| COc1ccc(-c2c(C)n([O-])c(C)c(C)[n+]2=O)cc1 | -4.52% |
| Nc1nnc(Cc2c[nH]c3ccccc23)s1 | -12% |
| O=c1c(C=NCc2cccs2)c(O)n(C2CCCCC2)c(=O)n1C1CCCCC1 | 8.72% |
| Cc1ccc(OCC(=O)N(Cc2ccccc2)c2ccccn2)cc1 | 14.1% |
| COC(=O)Oc1ccc(/C=N/NC(=O)CN(c2ccccc2Cl)S(C)(=O)=O)cc1OC | -14.2% |
| CC1CCN(C(=O)CCc2nnc3ccc(NCCCN4CCCC4=O)nn23)CC1 | 9.57% |
| Cc1[nH]c2ccc(-c3n[nH]c(=S)n3-c3ccc(Br)cc3)cc2c1C | 16.6% |
| OCC(Cc1ccccc1)NCc1ccccc1C(F)(F)F (stereo not drawn) | -8.24% |
| O=C(NCCc1ccc(Cl)cc1)C1CCC(=O)N1C1CCCC1 (stereo not drawn) | 6.58% |

| SMILES | hERG current change (%, negative = inhibition) at 10uM |
| --- | --- |
| CCOC(=O)N1CCN(c2c(NCCN3CCN(c4ccccc4F)CC3)c(=O)c2=O)CC1 | 7.57% |
| O=C1Nc2ccccc2/C1=C/c1cnc[nH]1 | -6.9% |
| Cc1ccc(NC(=O)Nc2ccc3c(c2)nc(C)n3C)cc1C | -5.18% |
| CC(=O)c1ccc(NC(=O)C2CCCN2S(=O)(=O)c2cccc3cccnc23)cc1 (stereo not drawn) | 7.11% |
| CC1C2CC(C(S(=O)(=O)N3CCOCC3)C2=O)C1(C)C (stereo not drawn) | 2.86% |
| NS(=O)(=O)c1ccc(N/C=C\C(=O)c2cccc3ccccc23)cc1 | -11.2% |
| COC(=O)c1ccc(C23CC4(C2)[C@H](CN(CC2CCCCC2)[C@@H]4c2ccccc2)C3c2ccccc2)cc1 (stereo partly drawn) | 6.05% |
| CC1C=Cc2ccccc2N1C(=O)c1ccccc1 (stereo not drawn) | -16% |
| COc1ccc(-c2ccnc(SCC(=O)c3ccc(Cl)cc3)n2)cc1 | 21.9% |
| Cc1cccc(N2CCN(C(=O)c3cccc(NC4=NC5CS(=O)(=O)CC5S4)c3)CC2)c1C (stereo not drawn) | 0.879% |
| O=[N+]([O-])c1ccc(O)c(/C=N/n2cnnc2)c1 | -5.11% |
| Cc1cc(C2N=C(N)Nc3nc4ccccc4n32)c(C)n1-c1ccccc1Cl (stereo not drawn) | 4.77% |
| O=C(N/N=C\c1coc2ccccc2c1=O)c1ccco1 | 6.25% |
| Cc1ccc(-c2nnc(NC(=O)c3ccc([N+](=O)[O-])o3)o2)c(C)c1 | -13.3% |
| COc1ccc(S(=O)(=O)Nc2cccc(-c3ccc4nncn4n3)c2)cc1F | 9.83% |
| COc1ccccc1/C=C1\SC(=S)N(NS(=O)(=O)c2ccc(C)cc2)C1=O | -8.24% |
| N#Cc1ccc(OCC(=O)N/N=C(\CCC(=O)O)c2cccs2)cc1 | 12.8% |
| NC(=O)CSc1n[nH]c(-c2ccco2)n1 | 24% |
| CC(C)CC(=O)Nc1ccc(Cc2ccncc2)cc1 | 10.1% |
| CCC(=O)NC(c1cc(Cl)c2ccccc2c1O)C(C)C (stereo not drawn) | 4.25% |
| CCCC/C(C)=N\NC(=O)CNS(=O)(=O)c1ccc([N+](=O)[O-])cc1 | -2.14% |
| COc1ccc(OCC(=O)Nn2c(-c3ccc(C)cc3)nc3ccccc3c2=O)cc1 | 8.87% |

| SMILES | hERG current change (%, negative = inhibition) at 10uM |
| --- | --- |
| Cc1ccc(C(=O)Oc2ccc(N3C(=O)CCC3=O)c(C)c2)cc1 | 2.87% |
| CC(=O)c1cccc(CN2CCC(CO)(CCOc3ccccc3)CC2)c1 | -41.5% |
| CCOc1ccc(S(=O)(=O)Nc2ccccn2)c2ccccc12 | 10.7% |
| CCN(CC)Cc1nc2c(c(=O)[nH]1)C1(CCCC1)Cc1ccccc1-2 | -14.5% |
| CCOC(=O)/C=C/C(=O)OCC(=O)Nc1ccc(OC)c(Cl)c1 | 6.24% |
| O=C(Nc1ccccc1)n1ccc(-c2ccc(-n3ccnc3)cc2)n1 | 17.1% |
| COc1cc(/C=C2\SC(=S)N(CC(=O)O)C2=O)ccc1OS(=O)(=O)c1ccc(C)cc1 | 13.7% |
| CC1C/C(=C\c2cccnc2)C(=O)/C(=C/c2cccnc2)C1 (stereo not drawn) | -63.1% |
| CCCCN(CCCC)CCNC(=O)CN1C(=O)CSc2ccc(S(=O)(=O)N3CCCCC3)cc21 | -74.7% |
| COc1cc(/C=C/c2ccc3cccc(O)c3n2)c(Br)cc1O | 21.3% |
| CCOC(=O)c1c(NC(=O)Nc2ccccc2)sc(C)c1C | 3.63% |
| NC(=O)c1cc(S(=O)(=O)N2CCN(c3cccc(Cl)c3)CC2)cs1 | 28.1% |
| CCOC(=O)Nc1nc(-c2ccc(Cl)cc2Cl)cs1 | 11.7% |
| S=C(NCC1COc2ccccc2O1)Nc1ccccc1 (stereo not drawn) | 2.3% |
| COCCn1c(SCC(=O)Nc2ccc(F)cc2)nc2c([nH]c3ccccc32)c1=O | 0.692% |
| CCCN(CCC)Cc1c(C(=O)OCC)nnn1-c1nonc1N | -12.7% |
| O=C(N/N=C/c1cccs1)c1ccc2c(c1)OCO2 | -14.3% |
| Oc1ccc2ccccc2c1C=Nc1ccc(Cl)cn1 | 0.0628% |
| Cc1cc(-c2ccccc2)nc(N/N=C/c2ccco2)n1 | -0.804% |
| COc1cc([C@H]2Oc3c(OC)cc(CCCO[C@@H]4O[C@H](CO)[C@@H](O)[C@H](O)[C@H]4O)cc3[C@@H]2CO)ccc1O | 0.467% |
| CN1CCN(Cc2nc3c([nH]2)c(=O)[nH]c(=O)n3C)CC1 | -10.6% |
| COc1ccccc1NC(=O)C1CCN(S(=O)(=O)c2cccs2)CC1 | -7.13% |

| SMILES | hERG current change (%, negative = inhibition) at 10uM |
| --- | --- |
| CCN(C(=O)COC(=O)c1oc2ccc(OC)cc2c1C)C1CCCCC1 | -4.08% |
| CC(C)OC(=O)c1cc2c(ccn2-c2ccc(F)cc2)n1CC(=O)N1CCN(C(=O)c2ccco2)CC1 | -69.2% |
| CCOC(=O)c1c(-c2ccc(C)cc2)csc1NC(=O)C1CC=CCC1C(=O)O (stereo not drawn) | -10.3% |
| CCOC(=O)c1ccc2c(c1)nc(-c1ccccn1)n2CC | 15.5% |
| COc1cccc(/C=C/c2n[nH]c(=O)c(C#N)c2C)c1 | 14.6% |
| Cc1ccc(-c2nc3c(c(SCC(=O)N4CCOCC4)n2)Cc2c(CO)cnc(C)c2O3)cc1 | 3.93% |
| Cc1ccc(-c2nnc(Cc3ccc(Cl)cc3)o2)cc1 | 8.63% |
| CCN(CC(=O)Nc1ccc(Cl)c(S(=O)(=O)N(C)C)c1)Cc1nc2ccccc2c(=O)[nH]1 | -34.5% |
| O=C(Nc1cccnc1)c1cc(-c2ccccc2)on1 | 5.06% |
| O=C(NN1C(=O)c2ccccc2NC1c1ccco1)c1ccccc1 (stereo not drawn) | -0.469% |
| CCOC(=O)CC1C(=O)NCCN1S(=O)(=O)c1ccc(OC)cc1 (stereo not drawn) | 6.63% |
| N/C(=N\OC(=O)c1ccccc1Cl)c1cccc([N+](=O)[O-])c1 | 10.2% |
| CCCc1cc(C(=O)Nc2cc(OC)ccc2OC)cs1 | 7.15% |
| O=C(O)c1ccc(/C=N/NC(=O)c2ccc(F)cc2)cc1 | 17.9% |
| N#C/C(=C\c1cn(-c2ccccc2)nc1-c1cccnc1)c1nnc2n1CCCCC2 | -63.2% |
| COc1ccc(-c2cccc(C3CC=CC4C3C(=O)N(Cc3ccccc3)C4c3ccc(C(F)(F)F)cc3)c2)cc1 (stereo not drawn) | 15.8% |
| FC(F)(F)c1nc2ccccc2nc1N/N=C/c1ccc(Cl)cc1 | 10.2% |
| CSCCC(NC(=O)c1ccc([N+](=O)[O-])cc1Cl)C(=O)OC(C)C(=O)NCc1ccco1 (stereo not drawn) | -61.7% |
| Cc1nc(NCC2CCCO2)c2oc3ccccc3c2n1 (stereo not drawn) | -0.928% |
| CS(=O)(=O)c1ccc(-c2nnn(CC(N)=O)n2)cc1 | 27.7% |
| Cc1ccc(C(=O)Nc2ccc3c(c2)OCCO3)o1 | 2.93% |

From publication PMC4336329 (PLoS ONE, 2015)
